Over roughly 110,000 compounds, “z-score” has its median near -0.1; the highest 2% begin near 2. The list shows a part of the results.
biological target: Metabotropic glutamate receptor 8 (Rattus norvegicus) (UniProt P70579); experiment: mGluR8 Gi/Go-coupled signaling modulation – cell-based, rat, thallium flux, HTS, primary screen (AID 488969); conditions: HEK293 rat mGluR8, GIRK (G protein-gated inwardly rectifying potassium channel) thallium flux, FluoZin2; at 10 µM; stronger effect = higher value; submaximal glutamate (EC20) added with thallium
Sequence of UniProt P70579 (P70579 whole entry, looked up): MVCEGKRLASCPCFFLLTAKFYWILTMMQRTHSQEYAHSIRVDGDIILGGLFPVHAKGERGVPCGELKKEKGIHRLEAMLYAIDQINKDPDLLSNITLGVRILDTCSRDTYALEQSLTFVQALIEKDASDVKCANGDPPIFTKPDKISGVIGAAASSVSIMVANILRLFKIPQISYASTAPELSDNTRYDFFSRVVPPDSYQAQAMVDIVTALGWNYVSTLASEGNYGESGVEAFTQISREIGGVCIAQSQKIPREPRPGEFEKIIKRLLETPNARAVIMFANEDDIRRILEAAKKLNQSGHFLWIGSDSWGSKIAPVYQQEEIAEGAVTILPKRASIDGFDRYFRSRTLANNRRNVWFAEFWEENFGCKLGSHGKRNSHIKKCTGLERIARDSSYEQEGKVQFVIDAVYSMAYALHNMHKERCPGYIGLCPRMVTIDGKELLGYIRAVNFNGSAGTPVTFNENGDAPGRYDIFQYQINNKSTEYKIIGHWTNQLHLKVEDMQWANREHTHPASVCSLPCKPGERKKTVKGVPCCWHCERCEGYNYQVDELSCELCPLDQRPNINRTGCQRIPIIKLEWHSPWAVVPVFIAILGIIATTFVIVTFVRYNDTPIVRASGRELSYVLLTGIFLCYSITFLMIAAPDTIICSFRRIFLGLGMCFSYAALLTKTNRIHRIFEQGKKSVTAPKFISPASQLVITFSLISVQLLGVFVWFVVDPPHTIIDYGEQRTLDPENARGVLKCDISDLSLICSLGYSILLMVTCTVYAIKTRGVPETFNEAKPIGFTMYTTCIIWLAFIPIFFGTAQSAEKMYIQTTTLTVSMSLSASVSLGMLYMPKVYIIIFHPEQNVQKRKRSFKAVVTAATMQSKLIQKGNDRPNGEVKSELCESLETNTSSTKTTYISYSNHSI

| SMILES | z-score |
| --- | --- |
| CNC(=O)c1csc(-c2ccncc2)n1 | 0.0926 |
| CCOc1cc(CNCc2ccncc2)cc(Br)c1OCc1ccccc1F | 0.172 |
| CCN(CC)C(=O)c1c(Cl)nc(C)c([N+](=O)[O-])c1C | 0.209 |
| Cc1ccc2c(c1)N(CCC(=O)NCc1cccs1)C(=O)C(C)O2 (configuration not stated) | 1.49 |
| Cc1cc(Cl)c(S(=O)(=O)NCCC(=O)O)cc1OCC(N)=O | -0.441 |
| COc1ccc(-c2c(C)[nH]n3c(=O)c(Cc4ccccc4)c(C)nc23)cc1 | 1.53 |
| COc1ccc(N2C(=O)C3CCCN3C2c2ccc(C)cc2)cc1 (configuration not stated) | 0.199 |
| Cc1ccnc(NC(=O)COc2ccc3oc4c(c3c2)CCCC4)c1 | -0.134 |
| CCSC(C)CC1C/C(=N/O)c2c(C)noc2C1 (configuration not stated) | 0.244 |
| COc1ccc(Cl)cc1-c1n[nH]c(=S)n1C | -0.0209 |
| CNC(=O)COC(=O)c1cccnc1SC | 0.00689 |
| CCCCCCC1C(C#N)=C(N)OC2=C1C(=O)CC(C)(C)C2 (configuration not stated) | -0.0797 |
| O=C(N/N=C/c1ccccc1)c1sccc1OCc1ccc(F)cc1 | -0.729 |
| C/C(N)=C(/C#N)C(=O)COC(=O)COc1ccc(Cl)cc1C | -0.236 |
| COc1cc(NC(=O)c2cccs2)c(C(=O)OCC(=O)NC(=O)NC(C)(C)C)cc1OC | -0.442 |
| CCCN1Cc2cccc(C(=O)NC3CCCC3)c2C1=O | -0.618 |
| O=C(c1ccco1)N1CCN(C(=O)c2ccc(Cn3cc(Br)cn3)o2)CC1 | 0.329 |
| CCOC(=O)c1c(C)n(OC)c2ccc3c(no[n+]3[O-])c12 | -1.05 |
| Cc1cc(-c2csc(NC(=O)c3ccc(S(=O)(=O)N(C)C)cc3)n2)c(C)n1-c1ccccc1 | -0.127 |
| CCOC(=O)c1cnc2c(c(C)nn2C)c1Oc1ccc(Cl)cc1 | -0.527 |
| O=c1c2c3c(sc2nc2sc(CN4CCOCC4)cn12)CCCC3 | 0.00926 |
| CCc1ccccc1NS(=O)(=O)c1ccc2[nH]cc(C(=O)NCC3CCCO3)c(=O)c2c1 (configuration not stated) | 0.199 |
| CCC(C)c1ccccc1OCCn1ccnc1 (configuration not stated) | -0.166 |
| CCCCNC(=O)CN(c1cccc(Br)c1)S(C)(=O)=O | -0.415 |

| SMILES | z-score |
| --- | --- |
| Cc1ccc(N2CCN(C3=NC(=O)C(Cc4ccccc4)S3)CC2)cc1 (configuration not stated) | -0.114 |
| CC(C)c1ccc(C(=O)CSc2n[nH]c(-c3ccncc3)n2)cc1 | -0.287 |
| Nc1nnc(SCC(=O)Nc2ccc3c(c2)OCCO3)s1 | 0.135 |
| O=C(Cn1nnc(-c2ccccc2F)n1)Nc1ccc2c(c1)OCO2 | 2.41 |
| CCCCS(=O)(=O)Nc1ccc(C(=O)NCC2CCCO2)cc1 (configuration not stated) | 0.2 |
| Cc1c(C(=O)N2CCN(c3ccccc3)CC2)sc2ncnc(N3CCC(C)CC3)c12 | -0.36 |
| O=C(CCN1CCN(c2ccccc2F)CC1)Nc1ccccc1F | -0.475 |
| CCOC(=O)Cc1csc(NC(=O)c2ccncc2)n1 | -0.235 |
| COC(=O)Cc1cn(-c2ncc(C(F)(F)F)cc2Cl)c2ccccc12 | -0.231 |
| Cc1ccc(-n2c(Cc3cccs3)nnc2SCC(N)=O)cc1 | 0.131 |
| O=C(NCc1cccs1)C1CCN(S(=O)(=O)c2ccc(Br)s2)CC1 | 0.146 |
| CCn1c2ccccc2c2cc(NC(=O)c3cc(OC)c(OC)c(OC)c3)ccc21 | -0.658 |
| CC1(C)CC(=O)C2=C(C1)N(c1cccnc1)C(N)=C(C#N)C2c1cccs1 (configuration not stated) | -0.634 |
| CN(c1ccc(OCC(=O)Nc2ccc3[nH]c(=O)[nH]c3c2)cc1)S(=O)(=O)c1ccc(Cl)cc1 | 0.0821 |
| Cc1ccc(NC(=O)N/C=C/c2ccc(Cl)cc2)cc1 | 0.203 |
| Cc1ccc(C(=O)N/N=C\c2cccn2C)cn1 | 0.0922 |
| Cc1oc2c(C)c(O)ccc2c(=O)c1-c1ccc2ccccc2n1 | -0.0381 |
| O=C(CCl)Nc1cccn2ncnc12 | 0.184 |
| Cc1ccc(S(=O)(=O)N2CCOCC2)cc1NC(=O)COC(=O)C1COc2ccccc2O1 (configuration not stated) | -0.804 |
| CCCC(=O)C1CCN(Cc2ccccc2)CC1 | -0.0406 |
| CC(=O)CSc1nc(C(F)(F)F)cc(=O)n1-c1ccccc1 | -0.00409 |
| O=c1c2ccccc2nc(SCc2cc(F)cc3c2OCOC3)n1Cc1ccco1 | 0.0405 |
| Cc1cc(NS(=O)(=O)c2ccc(NC(=O)Cc3cccs3)cc2)no1 | -0.115 |
| Cc1ccc(C)c(N2CC(=O)N(c3cc(C)ccc3C)CC2=O)c1 | -0.264 |

| SMILES | z-score |
| --- | --- |
| CCCc1cc(=O)oc2cc(Oc3ncccn3)ccc12 | -0.455 |
| Cn1cc(C2CC(c3ccccc3)=NN2C(=O)c2ccccc2)c2ccccc21 (configuration not stated) | -0.0998 |
| Clc1ccc2nc(-c3ccc(Br)s3)cn2c1 | 0.066 |
| CCCOC(=O)c1ccc(NC(=O)c2cc(OC)c(OC)c(OC)c2Br)cc1 | 0.194 |
| CCCCn1c(N)c(-c2nc3ccccc3o2)c2c([N+](=O)[O-])nn(C)c(=O)c21 | -0.107 |
| C=CCn1c(O)c(C(CC)=Nc2ccccc2NC(=O)CC)c(=O)[nH]c1=O | -0.48 |
| Cc1ccccc1-n1nc(C(=O)O)cc1-c1ccccc1 | -2.03 |
| Cc1ccccc1-c1noc(N)c1C#N | 0.329 |
| Cc1onc(-c2ccccc2)c1C(=O)Nc1cccc2nsnc12 | -0.396 |
| COc1ccccc1CNC(=O)C(CCSC)NC(=O)C1CCC(C)CC1 (configuration not stated) | -0.988 |
| O=C(O)c1cccc(S(=O)(=O)Nc2ccccc2Cl)c1 | 0.0719 |
| CCOc1ccc(-c2nnc(Nc3ccc(OC)c(C(=O)N4CCCCC4)c3)c3ccccc23)cc1 | -0.286 |
| CC(C)Nc1nc(NC(C)(C)C)nc(Oc2ccc(=O)n(-c3ccccc3)n2)n1 | -1.37 |
| CC(C)c1ccc(C(=O)N/N=C/c2cccc(Cl)c2Cl)cc1 | -0.0927 |
| CC1CC(C)CN(S(=O)(=O)c2ccccc2[N+](=O)[O-])C1 (configuration not stated) | -0.156 |
| FC(F)(F)c1nnc2ccc(N3CCOCC3)nn12 | -0.0539 |
| O=C(NCCNS(=O)(=O)c1ccc(Cl)cc1)c1cc(OCC(F)(F)F)ccc1OCC(F)(F)F | -0.178 |
| O=S(=O)(c1ccccc1)N(CC(O)Cn1c2ccccc2c2ccccc21)c1ccccc1 (configuration not stated) | 0.127 |
| O=C(CSc1ncn(-c2ccccc2)n1)Nc1nc(-c2ccccc2)cs1 | -0.421 |
| COCCN1CCc2[nH]c(=S)[nH]c(=O)c2C1 | -0.14 |
| CN1CCN(CC(=O)N(Cc2c(C#N)c3ccccc3n2C)c2ccccc2)CC1 | 1.09 |
| O=C(/C=C/c1ccc(Cl)c([N+](=O)[O-])c1)Nc1cccnc1 | -0.206 |
| CCN1N=C(c2cc(Cl)sc2Cl)CSC1=O | 0.341 |
| Cc1nc2ccc(Cc3ccc4nc(C)[nH]c4c3)cc2[nH]1 | -0.199 |

— PubChem BioAssay AID488969 (Vanderbilt High Throughput Screening Facility, 2010)
